According to patent US20240254096A1, “ULTRAVIOLET AND VISIBLE RADIATION ABSORBING COMPOUNDS” (ELKIMIA INC., priority 2021, published 2024):

Assay: Thermal stability by Thermogravimetric Analysis (TGA)
Format: physicochemical
Protocol: Briefly, the residual weight (%) of the compounds was measured at different temperatures, including 100° C. for water boiling, and other temperatures corresponding to extrusion processes, and the T onset (° C.) by intersection points of tangents was checked. The results are represented in Table 16 below, and in FIG. 6.

Structure (SMILES): C#Cc1ccc(NC2C=C(NCC(=O)OCC)CC(C)(C)C2)cc1 (stereo not shown) [Formula 76]
- Td max: 260.9 °C and 253.3 °C [lines of one column]

A number of entries come with more than one value. Only these are listed. An entry can have further records. Results that share an entry appear to be repeats (runs, samples, wells or individuals).
